Reference: the supplement of paper PMC4604168 (melanoma cell lines)
Some of the results follow. Repeats are few or missing, and single values can be far off.

These molecules were tested on COLO800 (assay: cell count relative to DMSO control; melanoma cells; higher = more viable cells). Settings: library dose: low library concentration; 72 h.
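Further: cell number obtained by counting DAPI-stained nuclei in high-throughput microscope images with image analysis software, screen run in 1,536-well plates.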

Structure (SMILES)	cell count [%]
C[C@]12O[C@H](C[C@]1(O)CO)n1c3ccccc3c3c4c(c5c6ccccc6n2c5c31)CNC4=O [Lestaurtinib] + OCc1c[nH]c2ccccc12 [Indole-3-carbinol] (first compound 0.004 µM, partner dose 0.8 µM)	84.6
C[C@]12O[C@H](C[C@]1(O)CO)n1c3ccccc3c3c4c(c5c6ccccc6n2c5c31)CNC4=O [Lestaurtinib] + CO[C@H]1C[C@@H]2CC[C@@H](C)[C@@](O)(O2)C(=O)C(=O)N2CCCC[C@H]2C(=O)O[C@H]([C@H](C)C[C@@H]2CC[C@@H](OCCO)[C@H](OC)C2)CC(=O)[C@H](C)/C=C(\C)[C@@H](O)[C@@H](OC)C(=O)[C@H](C)C[C@H](C)/C=C/C=C/C=C/1C [everolimus] (first compound 0.004 µM, partner dose 0.02 µM)	50.7
C[C@]12O[C@H](C[C@]1(O)CO)n1c3ccccc3c3c4c(c5c6ccccc6n2c5c31)CNC4=O [Lestaurtinib] + Cn1c(=O)n(-c2ccc(C(C)(C)C#N)cc2)c2c3cc(-c4cnc5ccccc5c4)ccc3ncc21 [NVP-BEZ235] (first compound 0.004 µM, partner dose 0.004 µM)	159
C[C@]12O[C@H](C[C@]1(O)CO)n1c3ccccc3c3c4c(c5c6ccccc6n2c5c31)CNC4=O [Lestaurtinib] + Nc1ccn([C@@H]2O[C@H](CO)[C@@H](O)C2(F)F)c(=O)n1 [gemcitabine] (first compound 0.004 µM, partner dose 0.0004 µM)	96.6
Cn1cc(C2=C(c3cn(C4CCN(Cc5ccccn5)CC4)c4ccccc34)C(=O)NC2=O)c2ccccc21 [Enzastaurin] + CO[C@H]1C[C@@H]2CC[C@@H](C)[C@@](O)(O2)C(=O)C(=O)N2CCCC[C@H]2C(=O)O[C@H]([C@H](C)C[C@@H]2CC[C@@H](OCCO)[C@H](OC)C2)CC(=O)[C@H](C)/C=C(\C)[C@@H](O)[C@@H](OC)C(=O)[C@H](C)C[C@H](C)/C=C/C=C/C=C/1C [everolimus] (first compound 0.8 µM, partner dose 0.02 µM)	72.3
C[C@]12O[C@H](C[C@]1(O)CO)n1c3ccccc3c3c4c(c5c6ccccc6n2c5c31)CNC4=O [Lestaurtinib] + Nc1cccc2c1CN(C1CCC(=O)NC1=O)C2=O [lenalidomide] (first compound 0.004 µM, partner dose 1 µM)	138
C[C@]12O[C@H](C[C@]1(O)CO)n1c3ccccc3c3c4c(c5c6ccccc6n2c5c31)CNC4=O [Lestaurtinib] + CN(c1ncccc1CNc1nc(Nc2ccc3c(c2)CC(=O)N3)ncc1C(F)(F)F)S(C)(=O)=O [PF562271] (first compound 0.004 µM, partner dose 0.08 µM)	142
C[C@]12O[C@H](C[C@]1(O)CO)n1c3ccccc3c3c4c(c5c6ccccc6n2c5c31)CNC4=O [Lestaurtinib] + CC(=O)O[C@@]12CO[C@@H]1C[C@H](O)[C@@]1(C)C(=O)[C@H](O)C3=C(C)[C@@H](OC(=O)[C@H](O)[C@@H](NC(=O)OC(C)(C)C)c4ccccc4)C[C@@](O)([C@@H](OC(=O)c4ccccc4)[C@H]21)C3(C)C [Docetaxel] (first compound 0.004 µM, partner dose 0.0001 µM)	43
C[As](C)SC[C@H](NC(=O)CC[C@H](N)C(=O)O)C(=O)NCC(=O)O [Darinaparsin] + O=C(Nc1ccccc1)c1cc([N+](=O)[O-])ccc1Cl [GW9662] (first compound 0.4 µM, partner dose 2 µM)	97.2
C[As](C)SC[C@H](NC(=O)CC[C@H](N)C(=O)O)C(=O)NCC(=O)O [Darinaparsin] + Cc1cc(SCc2sc(-c3ccc(C(F)(F)F)c(F)c3)nc2C)ccc1OCC(=O)O [GW0742] (first compound 0.4 µM, partner dose 2 µM)	98.4
C[C@]12O[C@H](C[C@]1(O)CO)n1c3ccccc3c3c4c(c5c6ccccc6n2c5c31)CNC4=O [Lestaurtinib] + CCCS(=O)(=O)Nc1ccc(F)c(C(=O)c2c[nH]c3ncc(Cl)cc23)c1F [PLX4720] (first compound 0.004 µM, partner dose 0.08 µM)	151
